The other results are listed elsewhere or left out.

We go through 6 molecules from article PMC12136788.

The labels stand for the following.
B1: chr10:131940083:131940120:+|CDS_3pUTR|ENSG00000175470|msi1_unk|FALSE|overlapping (ssRNA)
RNA: GGGAGUUCUACAGUCCGACGAUCAUAUAAUGUUUACAGCACCUUUCAAAGUCAUGAACCGGAGUUUGACUAUUUGAAAAGUCUAGAAAUUGAGGAAAAAAUUAAUAAAAUUAGGUGGUUACCACAACAGAAUGCUGCUCAUUUCAACAGAGGAUUGAGCAUCA
B2: ENSG00000136451:be:win_201|CDS|ENSG00000136451|bound_else_gene|NA|bound_elsewhere_windowed (ssRNA)
RNA: GGGAGUUCUACAGUCCGACGAUCAGAAAAACCCAAAACUUCAUUUGUGUGCACUUACUGCAGUAAAGCUUUCAGGGACAGCUAUCACCUGAGGCGCCACGAAUCCUGCCACACAGGGAUCAAGUUGGUGUCCCGGCCAAAGAACAACAGAGGAUUGAGCAUCA
B3: chr9:135932998:135933099:-|3pUTR|ENSG00000130560|unk|FALSE|unique (ssRNA)
RNA: GGGAGUUCUACAGUCCGACGAUCGCUGCUUGAAUUGCCGUGUAGACAUUUGCUUGGAGAGUCCACUUGUUAUUUGACGGAGGUAGGUUUCAACCCAGAGUUAAUGUCAAGCAUGCUAAUUUAACUAGUCACUCACAGAUGACUCAACAGAGGAUUGAGCAUCA
B4: chr12:50175971:50176072:-|3pUTR|ENSG00000050405|msi1|total|mutant (ssRNA)
RNA: GGGAGUUCUACAGUCCGACGAUCCACAGUAUUCUCAGGGUGAAAUUAAACCAACUACCGGCCUUUUUCUUGGGAUGAUUUUCCCGUCUUAAGGUUUGGGGACAUUAUAAACUUGAGUACAUUUGUUGUACACAGUUGAUAUUCCAACAGAGGAUUGAGCAUCA
B5: chr9:133361993:133362109:-|3pUTR|ENSG00000148248|msi1_unk|total|mutant (ssRNA)
RNA: GGGAGUUCUACAGUCCGACGAUCGGCAGGUUUCUGCUCAUAAGUGCUUUUGGAAGUCACCUACCUUUUUAACACAGCCGAACCCGUCCCAACGCGUUUGCAAAUAUUCCCCUGGCCGCCUACUUCCUUACCCCCGAAUAUUGGCAACAGAGGAUUGAGCAUCA
B6: ENSG00000130703:stop:overlap|stop_codon|ENSG00000130703|stop_codon|NA|stop_codon (ssRNA)
RNA: GGGAGUUCUACAGUCCGACGAUCCGUGUGGAUUAUUUGGAAAAGAACUUCACAAGGUGGAAGGACACAUUCAAGACAAAAAGUAGGUCCUUGCCAAGUGUUCAUGGGGCACCACUACAGCCUGUGUGUCCACGUUAGAAGGGCCAACAGAGGAUUGAGCAUCA

This assay deals with MSI1 full-length (mouse, UniProt Q61474 1-362). As to the kind of experiment: nsRBNS (natural sequence RNA bind-n-seq); RBNS binding buffer (assumed for nsRBNS): 25 mM Tris pH 7.5, 150 mM KCl, 3 mM MgCl2, 0.01% Triton X-100, 500 ug/ml BSA, 20 U/ml SUPERase-In, 4 C; UNK is unkempt and MSI1 is Musashi-1; names of the RNAs are library labels; protein concentration not given here; high values mean tight binding.
Sequence of UniProt Q61474 (Q61474 whole entry): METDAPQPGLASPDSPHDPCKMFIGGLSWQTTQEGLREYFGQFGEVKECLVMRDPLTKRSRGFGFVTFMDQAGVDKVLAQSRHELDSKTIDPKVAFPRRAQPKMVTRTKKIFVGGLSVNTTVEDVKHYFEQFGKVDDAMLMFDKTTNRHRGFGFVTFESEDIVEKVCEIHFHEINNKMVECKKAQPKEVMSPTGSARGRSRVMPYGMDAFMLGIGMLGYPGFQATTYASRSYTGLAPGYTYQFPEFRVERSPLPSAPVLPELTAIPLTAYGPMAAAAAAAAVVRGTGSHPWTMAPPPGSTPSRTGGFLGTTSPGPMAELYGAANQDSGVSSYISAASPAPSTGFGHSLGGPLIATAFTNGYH
The molecule B1 had a binding signal of 11 enrichment R.

Molecule B2 yielded a binding signal of 0.514 enrichment R.

B3 registered a binding signal of 0.456 enrichment R.

For the molecule B4, the binding signal was determined as 0.337 enrichment R.

B5 yielded a binding signal of 0.444 enrichment R.

Molecule B6 registered a binding signal of 0.719 enrichment R.
